Assay results: PubChem BioAssay (NCI)
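Following 48 hours of exposure in 96-well plates, responses at five concentrations were used to interpolate endpoints linearly. GI50 is the concentration that inhibits growth by half. At the TGI there is no net growth.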

Test system: NCI-H322M lung
Test: NCI tumour cell line growth inhibition, 48 h

CC(C)(C)c1ccc(NCc2cn(-c3ccc(C(=O)O)cc3)nc2-c2ccc(C#N)cc2)cc1
GI50: 9.84 µM | TGI: 23.6 µM

COc1ccc(OC)c(-c2cc(-c3c[nH]c4ccccc34)nc(N)c2C#N)c1
GI50: 5.76 µM | TGI: 19.1 µM
